{"source": "paper PMC4336329", "about": "(PLoS ONE, 2015)", "note": "Out of some 310,000 compounds screened, about 14,000 (4.5%) showed an effect of 50% or more. The effect is printed as a negative number. The list shows a part of the results.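 Also: peak tail current of the secondary pulse compared with the same well before compound.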", "data": [{"target": "human ether-à-go-go-related gene (hERG) potassium channel (human, UniProt Q12809)", "sequence (Q12809 whole entry, looked up)": "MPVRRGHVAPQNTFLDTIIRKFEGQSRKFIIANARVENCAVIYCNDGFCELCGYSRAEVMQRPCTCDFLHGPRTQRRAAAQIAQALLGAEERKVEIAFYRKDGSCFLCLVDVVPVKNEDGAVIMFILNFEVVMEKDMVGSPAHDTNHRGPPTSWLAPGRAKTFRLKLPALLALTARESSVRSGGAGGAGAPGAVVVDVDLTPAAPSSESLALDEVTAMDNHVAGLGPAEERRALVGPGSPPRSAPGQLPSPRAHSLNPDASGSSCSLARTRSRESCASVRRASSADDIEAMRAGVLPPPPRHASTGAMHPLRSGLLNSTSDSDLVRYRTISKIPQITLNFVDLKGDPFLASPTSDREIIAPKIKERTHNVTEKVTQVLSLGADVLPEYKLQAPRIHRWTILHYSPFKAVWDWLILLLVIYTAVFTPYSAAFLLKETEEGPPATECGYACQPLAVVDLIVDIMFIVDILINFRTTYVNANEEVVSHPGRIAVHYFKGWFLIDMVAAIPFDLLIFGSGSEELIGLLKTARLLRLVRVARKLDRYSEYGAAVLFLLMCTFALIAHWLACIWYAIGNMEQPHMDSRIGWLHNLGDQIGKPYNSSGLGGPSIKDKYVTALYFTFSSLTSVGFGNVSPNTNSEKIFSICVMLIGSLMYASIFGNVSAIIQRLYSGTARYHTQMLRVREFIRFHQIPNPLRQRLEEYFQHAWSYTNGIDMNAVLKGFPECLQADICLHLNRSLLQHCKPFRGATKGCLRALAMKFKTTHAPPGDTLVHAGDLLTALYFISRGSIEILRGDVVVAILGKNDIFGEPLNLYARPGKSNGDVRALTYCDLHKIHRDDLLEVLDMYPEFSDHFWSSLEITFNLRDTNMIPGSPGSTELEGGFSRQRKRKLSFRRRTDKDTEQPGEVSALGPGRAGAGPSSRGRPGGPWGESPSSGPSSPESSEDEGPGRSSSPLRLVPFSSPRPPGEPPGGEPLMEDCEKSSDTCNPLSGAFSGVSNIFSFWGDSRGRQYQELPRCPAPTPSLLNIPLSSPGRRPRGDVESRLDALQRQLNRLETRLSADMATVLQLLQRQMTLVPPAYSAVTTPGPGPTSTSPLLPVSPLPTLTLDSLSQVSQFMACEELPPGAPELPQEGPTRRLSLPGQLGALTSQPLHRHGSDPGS", "assay": "primary screen, population patch clamp on CHO cells stably expressing hERG", "units": {"hERG current change (%, negative = inhibition) at 10uM": "%"}, "values": [{"smiles": "CCOc1ccccc1C(=O)N(CN1CCCC1=O)c1cccc(Cl)c1", "hERG current change (%, negative = inhibition) at 10uM": -3.65}, {"smiles": "Cc1ccc(S(=O)(=O)Nc2cc(Cl)c(O)cc2C)cc1", "hERG current change (%, negative = inhibition) at 10uM": -13.9}, {"smiles": "Cc1ccc(C)n1-c1ccc(N2CCOCC2)cc1", "hERG current change (%, negative = inhibition) at 10uM": 0.152}, {"smiles": "Cc1ccc(C(=O)NC2CC3CCCC(C2)N3C(=S)NCc2ccco2)cc1", "note": "(stereo not drawn)", "hERG current change (%, negative = inhibition) at 10uM": 11.8}, {"smiles": "Cc1cc(NS(=O)(=O)c2ccc(CC(C)C)cc2)no1", "hERG current change (%, negative = inhibition) at 10uM": 0.997}, {"smiles": "O=S(=O)(Cc1ccccc1)N1CCN(C2Cc3ccccc3C2)CC1", "hERG current change (%, negative = inhibition) at 10uM": -8.38}, {"smiles": "Clc1ccc2c(NCc3ccco3)ncnc2c1", "hERG current change (%, negative = inhibition) at 10uM": -6.16}, {"smiles": "COc1ccccc1NC(=O)c1cc(S(=O)(=O)N2CCCCCC2)ccc1F", "hERG current change (%, negative = inhibition) at 10uM": 4.66}, {"smiles": "O=C(NCc1cccnc1)c1cccc(S(=O)(=O)Nc2cccc(Cl)c2)c1", "hERG current change (%, negative = inhibition) at 10uM": -10.8}, {"smiles": "CC1C(c2cccs2)=[N+]([O-])C(C)(C(=O)c2ccc(F)cc2)N1O", "note": "(stereo not drawn)", "hERG current change (%, negative = inhibition) at 10uM": 17.6}, {"smiles": "COc1ccc(C(=O)COC(=O)c2ccc3c(c2)NC(=O)CS3)c(OC)c1", "hERG current change (%, negative = inhibition) at 10uM": 7.09}, {"smiles": "COc1cc(OC)c2c(c1)O[C@@H](c1ccc(OC)c(OC)c1)[C@H](O)C2", "hERG current change (%, negative = inhibition) at 10uM": 12.7}, {"smiles": "COc1ccccc1N1CCN(C(=O)COc2cccc(C)c2C)CC1", "hERG current change (%, negative = inhibition) at 10uM": 0.436}, {"smiles": "CN(C(=O)CN(C)S(=O)(=O)c1ccc(F)cc1)c1c(N)n(Cc2ccccc2)c(=O)[nH]c1=O", "hERG current change (%, negative = inhibition) at 10uM": -18.8}, {"smiles": "O=C(Nc1ccc(C(F)(F)F)cc1)c1cc(-c2cccnc2)nc2ccc(Br)cc12", "hERG current change (%, negative = inhibition) at 10uM": -16.2}, {"smiles": "O=C(Nc1cccc(C(F)(F)F)c1)N1CCC(c2nc(-c3ccc(F)cc3)no2)CC1", "hERG current change (%, negative = inhibition) at 10uM": -28.7}, {"smiles": "O=C(c1c(F)cccc1F)N(Cc1ccccn1)C1CCCC1", "hERG current change (%, negative = inhibition) at 10uM": 14.1}, {"smiles": "COc1ccc(-n2ncc(C(C)NS(=O)(=O)c3ccc(C(C)=O)cc3)c2C)cc1", "note": "(stereo not drawn)", "hERG current change (%, negative = inhibition) at 10uM": 9.78}, {"smiles": "O=C(Cc1ccc(S(=O)(=O)N2CCOCC2)s1)N1CCN(c2ccc(C(F)(F)F)cc2[N+](=O)[O-])CC1", "hERG current change (%, negative = inhibition) at 10uM": -54.8}, {"smiles": "Cc1noc(NS(=O)(=O)c2ccc(NC(=O)C(C)(C)C)cc2)c1C", "hERG current change (%, negative = inhibition) at 10uM": 19.2}, {"smiles": "Cc1cccc(C(=O)NNS(=O)(=O)c2ccccc2[N+](=O)[O-])c1", "hERG current change (%, negative = inhibition) at 10uM": 1.16}, {"smiles": "CN1OC(c2ccccc2)=C(CO)C1c1ccccc1", "note": "(stereo not drawn)", "hERG current change (%, negative = inhibition) at 10uM": 6.52}, {"smiles": "COCCCn1c(=O)c2ccccc2n(Cc2ccccc2)c1=O", "hERG current change (%, negative = inhibition) at 10uM": -6.14}, {"smiles": "CC1(CCc2ccccc2)NC(=O)N(CC(=O)N2CC(=O)Nc3ccccc32)C1=O", "note": "(stereo not drawn)", "hERG current change (%, negative = inhibition) at 10uM": 7.19}, {"smiles": "CC(C)OC(=O)CN1C(=O)C(C)(C)Oc2ccc(C(=O)NC3CC3)cc21", "hERG current change (%, negative = inhibition) at 10uM": -4.13}, {"smiles": "Cc1ccc(NC(=O)CN(C)C(=O)CCOc2ccccc2C)cc1", "hERG current change (%, negative = inhibition) at 10uM": -14}, {"smiles": "CC(=O)NS(=O)(=O)c1ccc(NC(=O)CCC(=O)Oc2ccc(C)cc2)cc1", "hERG current change (%, negative = inhibition) at 10uM": 7.56}, {"smiles": "COC(=O)CSc1nc2ccccc2nc1SCC(=O)OC", "hERG current change (%, negative = inhibition) at 10uM": 4.61}, {"smiles": "NC(=O)CSc1nnc(-c2ccc([N+](=O)[O-])cc2)o1", "hERG current change (%, negative = inhibition) at 10uM": -2.83}, {"smiles": "COc1ccccc1-c1nnc(SCC(=O)N2CC(C)CC(C)C2)o1", "note": "(stereo not drawn)", "hERG current change (%, negative = inhibition) at 10uM": -1.96}, {"smiles": "COC(=O)C1=C(C(=O)c2ccc(C)cc2)C(c2ccccc2)n2nnnc2N1", "note": "(stereo not drawn)", "hERG current change (%, negative = inhibition) at 10uM": -1.32}, {"smiles": "CSc1cccc(NC(=O)NCc2cccc(CNC(=O)Nc3cccc(SC)c3)c2)c1", "hERG current change (%, negative = inhibition) at 10uM": 10.2}, {"smiles": "COc1cnc(-c2ccccn2)nc1Sc1ccc(F)cc1", "hERG current change (%, negative = inhibition) at 10uM": 5.49}, {"smiles": "CCCC(=O)N1CCc2cc(-c3nc(N)sc3C)ccc21", "hERG current change (%, negative = inhibition) at 10uM": 5.78}, {"smiles": "O=C(c1ccc(S(=O)(=O)N2CCOCC2)cc1)N(c1ccccn1)C1CCCCC1", "hERG current change (%, negative = inhibition) at 10uM": -6.32}, {"smiles": "CC(C)(C)OC(=O)N[C@H](Cc1ccccc1)C(=O)N1CCC(C(=O)O)CC1", "hERG current change (%, negative = inhibition) at 10uM": 9.08}, {"smiles": "CCN1CCc2c(OCC(=O)Nc3ccc(C)cc3)cccc2C1=O", "hERG current change (%, negative = inhibition) at 10uM": -6.47}, {"smiles": "NC(=O)N/N=C/C=C/c1ccc(F)cc1", "hERG current change (%, negative = inhibition) at 10uM": 8.5}, {"smiles": "CCN(CC)S(=O)(=O)c1ccc(C(=O)Nc2nnc(CSC)o2)cc1", "hERG current change (%, negative = inhibition) at 10uM": 14.1}, {"smiles": "Cc1ccccc1C(=O)Nc1ccc2c(c1)OCO2", "hERG current change (%, negative = inhibition) at 10uM": 6.11}, {"smiles": "CCCCNC(=O)Cc1ccc(Br)cc1", "hERG current change (%, negative = inhibition) at 10uM": 8.76}, {"smiles": "COCCNc1nc(C)c(C(C)=O)s1", "hERG current change (%, negative = inhibition) at 10uM": 19}, {"smiles": "O=C(/C=C/c1ccc(F)cc1)NCc1cccs1", "hERG current change (%, negative = inhibition) at 10uM": -21.9}, {"smiles": "COc1cc(CCc2ccc3c(c2)OCO3)oc(=O)c1", "hERG current change (%, negative = inhibition) at 10uM": 4.95}, {"smiles": "CC(C)(C)C(=O)Nc1cccc(-c2nc3ccccc3[nH]2)c1", "hERG current change (%, negative = inhibition) at 10uM": -7.63}]}]}
